Laboratory results published in PubChem BioAssay AID1508623 (National Center for Advancing Translational Sciences (NCATS), 2021).
Hit rate of the full screen: of about 48,000 compounds, about 450 (0.94%) were called active. Another 19% or so got no clear call; they are omitted. Calls follow the shape of the dose curve; as a rule, active = well fitted inhibition curve with a large enough effect; inconclusive = small, poorly fitted or top-dose-only effect; inactive = no such curve, though single readings can be large or run the other way. This is one part of the list.

Assay: Primary qHTS for Identification of Small Molecule Inhibitors of Huntingtin Promoter Activity; also: nearly all actives have a fitted effect of over 50% in size
Details: HEK293 HTT promoter firefly luciferase reporter (activity 0% = vehicle and -100% = no light), 24 h; series mostly up to 57.5 µM; activity change, negative = inhibition: at the top concentration
Procedure, shortened: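 Luminescence was read after Dual-Glo reagent and a 10 min room-temperature incubation. Values were normalized to vehicle (0% activity) and zero RLU (-100% activity). Reporter HEK293 cells had been exposed to compounds (up to 57.5 uM final) for 24 h.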

SMILES | activity change, negative = inhibition
CC(=O)c1cccc(NC(=O)CCS(=O)(=O)c2cc(Br)cc3c2N(C(=O)C2CC2)CC3)c1 | inactive: -6.72%
CCCC(=O)N1CC(=O)Nc2ccc(Cl)cc2C1c1ccc(F)cc1 (configuration not stated) | inactive: -19.7%
Cc1csc2nc(COC(=O)COc3ccccc3F)cc(=O)n12 | inactive: -22.5%
CCS(=O)(=O)c1ncc(N(Cc2ccco2)Cc2sccc2C)c(C(=O)Nc2cc(C)ccc2C)n1 | inactive: -28.3%
Cn1c(C(=O)NCc2ccc(F)cc2)cc2c(=O)n(C)c3ccccc3c21 | inactive: 1.36%
CCCn1c(=O)c2sccc2n2c(CCCC(=O)N3CCN(c4ccccc4)CC3)nnc12 | inactive: -7.38%
COc1ccc(CCNC(=O)Cn2nnc(-c3ccc(C(F)(F)F)cc3)n2)cc1OC | inactive: -18.1%
COCCn1c(SCC(=O)Nc2ccc(F)c(Cl)c2)nc2c(oc3ccccc32)c1=O | inactive: 3.79%
Cc1ccccc1NS(=O)(=O)c1ccc2[nH]cc(C(=O)N3CCCC3)c(=O)c2c1 | inactive: -3.41%
Cc1nc2ccn(Cc3cccnc3)c(=O)c2cc1C(=O)Nc1ccc(OC(F)(F)F)cc1 | inactive: -18.9%
C[C@@H](N)C1CCC(C(=O)Nc2ccncc2)CC1 (some centres not stated) | inactive: -9.89%
Cc1sc2ncn(CC(=O)Nc3cccc(C(F)(F)F)c3)c(=O)c2c1S(=O)(=O)N1CCC(C)CC1 | inactive: -17.4%
CCOC(=O)C1=C(CN2CCN(c3ccccc3)CC2)NC(=O)NC1c1ccc(C)cc1 (configuration not stated) | inactive: -30%
O=C(Nc1ccccc1C(=O)OCc1cc(=O)n2nc(C3CC3)sc2n1)c1cccc(Cl)c1 | inactive: -7.35%
Cc1ccc(Cl)cc1NC(=O)Cn1c(=O)c(CNc2ccccc2)cc2cc3c(cc21)OCCO3 | inactive: -15.7%
COc1ccc(C(=O)Nc2cc(C(F)(F)F)ccc2N2CCN(c3ccccc3)CC2)cc1OC | inactive: -0.871%
COc1ccc(-c2c(C)nn3c4c(cnc23)C(=O)CC(c2ccc(C)cc2)C4)cc1 (configuration not stated) | inactive: -11.5%
CCC(=O)Nc1nnc(S(=O)(=O)N(C)Cc2ccccc2)s1 | inactive: 1.17%
COc1cccc(NC(=O)Cn2c(=O)n(-c3ccc(CC(=O)NCC4CCCO4)cc3)c(=O)c3ccccc32)c1 (configuration not stated) | inactive: 0.987%
CCOc1ccccc1NC(=O)c1cccc2c1C(=O)N(C1CCCCC1)C2 | inactive: -2.22%
Cc1cc(C)cc(NC(=O)NCCn2nnc3cc(S(=O)(=O)N(C)C)ccc32)c1 | inactive: -22.2%
CCOc1ccc(C(=O)OCc2cc(=O)n3nc(C4CCCCC4)sc3n2)cc1 | inactive: -24.5%
Cc1ccc(C)c(NC(=O)CSc2cn(CC(=O)N3CCCC3)c3ccccc23)c1 | inactive: -20.7%
CCCN1C(=O)C(NC(=O)c2ccccc2OC)(C(F)(F)F)C(C(=O)OC)=C1C (configuration not stated) | inactive: -14.8%

SMILES | activity change, negative = inhibition
CCOc1ccc(NC(=O)Cc2csc(COc3cccc(C)c3)n2)cc1 | inactive: -5.94%
CCOc1ccccc1C1C(C(=O)Nc2ccccc2OC)=C(C)Nc2nc3ccccc3n21 (configuration not stated) | inactive: -2.27%
CCc1nnc2c3ccccc3nc(N3CCN(c4ccc(C)cc4C)CC3)n12 | inactive: -20.6%
CCOc1ccc(NC(=O)Cn2c(C)ccc(C#N)c2=O)cc1 | inactive: -7.49%
Cc1cc(C)c(NC(=O)CN(CC(=O)O)CC(=O)O)c(C)c1Br | inactive: 0.848%
COc1ccccc1CNC(=O)c1ccc(C)c(-n2cnc3cccnc32)c1 | inactive: -25.5%
COc1ccc(-c2nn(C)c3sc(C(=O)N4CCN(c5cccc(C)c5C)CC4)cc23)cc1OC | inactive: -4.43%
Cc1cc(Br)ccc1NC(=O)c1cc2c(s1)-c1ccccc1SC2 | inactive: -22.3%
O=C(CCCn1c(=O)c2cccn2c2cccnc21)NCCc1ccc(Cl)cc1 | inactive: -5.58%
COc1ccc(CN2C(=O)C(NC(=O)c3ccc(C)cc3)(C(F)(F)F)N=C2c2ccccc2)cc1 (configuration not stated) | inactive: -27.6%
COc1ccccc1NC(=O)CSc1nc2c(oc3ccccc32)c(=O)n1-c1ccc(C)cc1 | inactive: 0.663%
COc1ccc(NS(=O)(=O)c2nnc(NC(=O)c3ccccc3F)s2)cc1 | inactive: 14.3%
CCOC(=O)N1CCc2c(sc3c2c(=O)n(-c2ccc(Cl)cc2)c(=O)n3CC(=O)c2ccc(F)cc2)C1 | inactive: -7.73%
COc1ccc(-n2ccnc(NCCc3ccc(S(N)(=O)=O)cc3)c2=O)cc1 | inactive: -31.5%
COc1cc(/C=C/c2nc(C#N)c(NC3CCCCC3)o2)cc(OC)c1OC | inactive: -6.42%
Cc1ccc(CNc2nc3c(S(=O)(=O)c4ccccc4)nnn3c3ccsc23)cc1 | inactive: -4.51%
CC(O)COc1ccccc1 (configuration not stated) | inactive: 9.32%
COc1cc(C2c3c(oc4cc(C)c(C)cc4c3=O)C(=O)N2CCCN2CCOCC2)ccc1O (configuration not stated) | inactive: -10.4%
CCOC(=O)c1cc(S(=O)(=O)Nc2ccc(Br)c(C)c2)[nH]n1 | inactive: -16.8%
Cc1ccc2c(c1)c1c(c(=O)n(-c3cccc(Cl)c3)c(=O)n1CC(=O)N1CCCC1)n2C | inactive: -10.3%
Cc1c(C(=O)N2CCC(c3nc4ccccc4s3)CC2)oc2cc(Br)ccc12 | inactive: -6.4%
CCCNC(=O)c1cc2nc(-c3ccc(Br)cc3)cc(C(F)(F)F)n2n1 | inactive: -11.8%
COc1ccc(Br)cc1CNC(=O)c1cc(=O)[nH]c2ccc(S(=O)(=O)N3CCCC3)cc12 | inactive: -4.02%
